# Laboratory results taken from a collection of fitness landscapes (doi:10.1016/j.celrep.2020.107928).
# In all, about 81,000 sequences were measured (“one-hybrid fitness for binding NBS DNA”: median about -0.1, highest 2% from about 0.36 on). The list shows a part of the results.
# B1: Caulobacter ParB omega fusion; a variant is named by its letters at X, in order, B8GW30 (parent)
# chain: MESVVVGEPGMSEGRRGLGRGLSALLGEVDAAPAQAPGEQLGGSREAPIEILQRNPDQPRRTFREEDLEDLSNSIREKGVLQPILVRPSPDTAGEYQIVAGERAWRAAQRAGLKTVPIMVRELDDLAVLEIGIIENVQRADLNVLEEALSYKVLMEKFERTQENIAQTIGKSXSHVANXMRLLXLPDEVQSYLVSGELTAXHARAIAAAADPVALAKQIIEGGLSVRETEALARKAPNLSAGKSKGGRPPRVKDTDTQALESDLSSVLGLDVSIDHRGSTGTLTITYATLEQLDDLCNRLTRGI
# Variants of: B1
# Experiment: one-hybrid fitness for binding NBS DNA (the Noc-binding site; scaled: cognate 1, non-cognate 0); higher = stronger binding
# Conditions: with NBS DNA site
# How it was run: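 Fitness is the rescaled log change in variant-to-wild-type read ratio, measured by Illumina sequencing of plasmids before and after bacterial one-hybrid selection. The scale puts cognate at 1 and non-cognate at 0. Selection of Caulobacter ParB libraries, four specificity codons randomised, took place in E. coli USO with a HIS3 reporter, site 19 bp from the promoter, over 48 hours at 37°C on M9-minus-histidine with 0.1 mM IPTG and 5 mM 3-AT.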
row,Variant,one-hybrid fitness for binding NBS DNA
1,PGVY,≤ 0.2
2,ERPE,≤ 0.2
3,NDKT,≤ 0.2
4,LLFL,≤ 0.2
5,NKCS,≤ 0.2
6,NHKR,0.202
7,RQHY,≤ 0.2
8,PRGD,≤ 0.2
9,VMNG,≤ 0.2
10,LLLM,≤ 0.2
11,SVEA,≤ 0.2
12,RLYD,≤ 0.2
13,YNGC,≤ 0.2
14,FRCC,≤ 0.2
15,HWFT,≤ 0.2
16,LPCR,≤ 0.2
17,GTWG,≤ 0.2
18,LNSL,≤ 0.2
19,NTMP,≤ 0.2
20,AYTH,≤ 0.2
21,AVSW,≤ 0.2
22,PVAL,≤ 0.2
23,SIAV,≤ 0.2
24,SGWS,≤ 0.2

row,Variant,one-hybrid fitness for binding NBS DNA
1,NQGG,≤ 0.2
2,HGMV,≤ 0.2
3,MDGR,≤ 0.2
4,TLCT,≤ 0.2
5,KSAT,≤ 0.2
6,EDWR,≤ 0.2
7,LRHW,≤ 0.2
8,NAAR,≤ 0.2
9,WRNT,≤ 0.2
10,QDHG,≤ 0.2
11,SDTS,≤ 0.2
12,MEMT,≤ 0.2
13,PHTY,≤ 0.2
14,RDEG,≤ 0.2
15,CHSD,≤ 0.2
16,VWSG,≤ 0.2
17,FALC,≤ 0.2
18,WPTG,≤ 0.2
19,QAFC,≤ 0.2
20,YVQR,≤ 0.2
21,HGCL,≤ 0.2
22,TEFW,≤ 0.2
23,IGCS,≤ 0.2
24,WLSE,≤ 0.2

row,Variant,one-hybrid fitness for binding NBS DNA
1,VRTG,≤ 0.2
2,GWGP,≤ 0.2
3,WREG,≤ 0.2
4,VFYG,≤ 0.2
5,WCLT,≤ 0.2
6,WRSR,≤ 0.2
7,HDKL,≤ 0.2
8,SKGC,≤ 0.2
9,HTSS,≤ 0.2
10,PHCR,≤ 0.2
11,MECW,≤ 0.2
12,WKHC,≤ 0.2
13,TCSI,≤ 0.2
14,AEGK,≤ 0.2
15,QIQY,≤ 0.2
16,RSVF,≤ 0.2
17,EERR,≤ 0.2
18,IFKR,≤ 0.2
19,QQVS,0.33
20,SEPG,≤ 0.2
21,CSMV,≤ 0.2
22,RTEN,≤ 0.2
23,ANDC,≤ 0.2
24,WGCG,≤ 0.2

row,Variant,one-hybrid fitness for binding NBS DNA
1,LYDV,≤ 0.2
2,PHAQ,≤ 0.2
3,HVPA,≤ 0.2
4,RDSG,≤ 0.2
5,YGRN,≤ 0.2
6,SFMS,≤ 0.2
7,WEST,≤ 0.2
8,SRLK,≤ 0.2
9,GLVT,≤ 0.2
10,MAPY,≤ 0.2
11,TAYV,≤ 0.2
12,DSCG,≤ 0.2
13,AMPF,≤ 0.2
14,QQHW,≤ 0.2
15,HPKK,≤ 0.2
16,LEYL,≤ 0.2
17,KLWC,≤ 0.2
18,FTYR,≤ 0.2
19,HSLC,≤ 0.2
20,SWAK,≤ 0.2
21,PQYA,≤ 0.2
22,VFKN,≤ 0.2
23,EQLT,≤ 0.2
24,LVQG,≤ 0.2

row,Variant,one-hybrid fitness for binding NBS DNA
1,RCPD,≤ 0.2
2,APFS,≤ 0.2
3,FFKG,≤ 0.2
4,MHYT,≤ 0.2
5,SLKK,≤ 0.2
6,EFEE,0.347
7,VNMP,≤ 0.2
8,PPDL,≤ 0.2
9,DMPS,≤ 0.2
10,GVIY,≤ 0.2
11,LEVV,≤ 0.2
12,NDDT,≤ 0.2
13,CAFN,≤ 0.2
14,KLHF,≤ 0.2
15,VAAR,≤ 0.2
16,AAMV,≤ 0.2
17,LISR,≤ 0.2
18,NNLT,≤ 0.2
19,NPFV,≤ 0.2
20,EFGR,≤ 0.2
21,MSRA,≤ 0.2
22,WSST,≤ 0.2
23,CWDT,≤ 0.2
24,KDTV,≤ 0.2

row,Variant,one-hybrid fitness for binding NBS DNA
1,HIKG,≤ 0.2
2,RFPP,≤ 0.2
3,VVPN,≤ 0.2
4,TCFR,≤ 0.2
5,ETTF,≤ 0.2
6,RHMI,≤ 0.2
7,HRYW,≤ 0.2
8,YNNV,≤ 0.2
9,VPAS,≤ 0.2
10,RHSC,≤ 0.2
11,NLFM,≤ 0.2
12,RQNV,≤ 0.2
13,CQHS,≤ 0.2
14,CGQT,≤ 0.2
15,LKCR,≤ 0.2
16,NLSI,≤ 0.2
17,KPRS,≤ 0.2
18,RHPG,≤ 0.2
19,PYRQ,≤ 0.2
20,VWMS,≤ 0.2
21,SQEL,≤ 0.2
22,QARS,0.644
23,KGFG,≤ 0.2
24,YATC,≤ 0.2

row,Variant,one-hybrid fitness for binding NBS DNA
1,LDQS,≤ 0.2
2,FAAH,≤ 0.2
3,PQWC,≤ 0.2
4,RRGV,0.311
5,PCER,≤ 0.2
6,WRVQ,≤ 0.2
7,TPTM,≤ 0.2
8,NNIC,≤ 0.2
9,QAAH,≤ 0.2
10,AWDR,≤ 0.2
11,CKSN,≤ 0.2
12,VWDR,≤ 0.2
13,AQMI,≤ 0.2
14,PVMW,≤ 0.2
15,AGCY,≤ 0.2
16,ASTI,≤ 0.2
17,RHTP,≤ 0.2
18,WCIR,≤ 0.2
19,TPRE,≤ 0.2
20,HIWS,≤ 0.2
21,KLSA,≤ 0.2
22,RQKD,≤ 0.2
23,PPKI,≤ 0.2
24,MRTG,≤ 0.2

row,Variant,one-hybrid fitness for binding NBS DNA
1,KQRK,≤ 0.2
2,QDAW,≤ 0.2
3,ACYF,≤ 0.2
4,VVQA,≤ 0.2
5,QKDR,0.425
6,RNDM,≤ 0.2
7,HASV,≤ 0.2
8,CSTW,≤ 0.2
9,WDTT,≤ 0.2
10,MAMS,≤ 0.2
11,YNTI,≤ 0.2
12,FMPF,≤ 0.2
13,RIMV,≤ 0.2
14,PMRM,≤ 0.2
15,RMLE,≤ 0.2
16,YNKR,≤ 0.2
17,ASYS,≤ 0.2
18,RMYF,≤ 0.2
19,TVDT,≤ 0.2
20,YGVG,≤ 0.2
21,WTDS,≤ 0.2
22,RIEW,≤ 0.2
23,RSQY,≤ 0.2
24,QQYF,≤ 0.2

row,Variant,one-hybrid fitness for binding NBS DNA
1,HLIW,≤ 0.2
2,LKQT,≤ 0.2
3,SERF,≤ 0.2
4,VYLS,≤ 0.2
5,IPMR,≤ 0.2
6,HGLC,≤ 0.2
7,KADL,≤ 0.2
8,QKMA,≤ 0.2
9,KRTH,0.245
10,CYEL,≤ 0.2
11,TPAA,≤ 0.2
12,YLHT,≤ 0.2
13,NELA,≤ 0.2
14,PIVH,≤ 0.2
15,CPNR,≤ 0.2
16,SWTR,≤ 0.2
17,CKKG,≤ 0.2
18,RRKY,0.79
19,RQER,0.204
20,WQEG,≤ 0.2
21,QRFM,0.22
22,CTSV,≤ 0.2
23,INDT,≤ 0.2
24,RNYI,≤ 0.2

row,Variant,one-hybrid fitness for binding NBS DNA
1,NNLY,≤ 0.2
2,YDNW,≤ 0.2
3,HRVW,≤ 0.2
4,TFET,≤ 0.2
5,PSYA,≤ 0.2
6,GEET,≤ 0.2
7,NWAS,≤ 0.2
8,FRRP,≤ 0.2
9,NNYG,≤ 0.2
10,GHVM,≤ 0.2
11,CEKW,≤ 0.2
12,HICH,≤ 0.2
13,AYAG,≤ 0.2
14,KPAP,≤ 0.2
15,PQNW,≤ 0.2
16,RAYW,≤ 0.2
17,VCYS,≤ 0.2
18,GKPS,≤ 0.2
19,VDKN,≤ 0.2
20,SAVR,≤ 0.2
21,THQC,≤ 0.2
22,GRAN,≤ 0.2
23,PADQ,≤ 0.2
24,WSGA,≤ 0.2

row,Variant,one-hybrid fitness for binding NBS DNA
1,QTDN,≤ 0.2
2,HKNA,≤ 0.2
3,RMIA,≤ 0.2
4,AMES,≤ 0.2
5,HLQS,≤ 0.2
6,HRLI,≤ 0.2
7,GLCT,≤ 0.2
8,EHKA,≤ 0.2
9,HPDD,≤ 0.2
10,ASTV,≤ 0.2
11,AAHV,≤ 0.2
12,VRIL,≤ 0.2
13,VHPI,≤ 0.2
14,VSMM,≤ 0.2
15,NQMA,≤ 0.2
16,LAGF,≤ 0.2
17,VMSI,≤ 0.2
18,RAIK,≤ 0.2
19,RWMQ,≤ 0.2
20,EIKG,≤ 0.2
21,RAVF,≤ 0.2
22,RNPC,≤ 0.2
23,NMAC,≤ 0.2
24,LCRS,≤ 0.2

row,Variant,one-hybrid fitness for binding NBS DNA
1,SPHH,≤ 0.2
2,QPMV,≤ 0.2
3,DDGE,≤ 0.2
4,DFTG,≤ 0.2
5,RLDD,≤ 0.2
6,DKAS,≤ 0.2
7,KAVR,≤ 0.2
8,QICC,≤ 0.2
9,PKVW,≤ 0.2
10,RIPP,≤ 0.2
11,AMTR,≤ 0.2
12,LHVL,≤ 0.2
13,QQAM,≤ 0.2
14,ALVH,≤ 0.2
15,TPTS,≤ 0.2
16,FAES,≤ 0.2
17,QSAI,≤ 0.2
18,KFRW,≤ 0.2
19,RMTQ,≤ 0.2
20,KHII,≤ 0.2
21,YFSS,≤ 0.2
22,AHHS,≤ 0.2
23,YMPG,≤ 0.2
24,CTLA,≤ 0.2

row,Variant,one-hybrid fitness for binding NBS DNA
1,RNEG,≤ 0.2
2,TNKC,≤ 0.2
3,SPCS,≤ 0.2
4,LHNM,≤ 0.2
5,PYGS,≤ 0.2
6,SITD,≤ 0.2
7,QLGG,≤ 0.2
8,HSLA,≤ 0.2
9,TQMY,≤ 0.2
10,SVFK,≤ 0.2
11,WWHR,≤ 0.2
12,ATVS,≤ 0.2
13,MINT,≤ 0.2
14,YYYS,≤ 0.2
15,WYTS,≤ 0.2
16,APHE,≤ 0.2
17,RSSK,≤ 0.2
18,PICE,≤ 0.2
